# From article PMC4336329 (PLoS ONE, 2015)
# Hit rate of the full screen: of about 310,000 compounds, about 14,000 (4.5%) showed an effect of 50% or more. The effect is printed as a negative number. This is one part of the list.
# Target: human ether-à-go-go-related gene (hERG) potassium channel (human, UniProt Q12809)
# Assay: primary screen, population patch clamp on CHO cells stably expressing hERG
# 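Further: peak tail current of the secondary pulse compared with the same well before compound.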
# Chain of human ether-à-go-go-related gene (hERG) potassium channel (Q12809 whole entry, looked up): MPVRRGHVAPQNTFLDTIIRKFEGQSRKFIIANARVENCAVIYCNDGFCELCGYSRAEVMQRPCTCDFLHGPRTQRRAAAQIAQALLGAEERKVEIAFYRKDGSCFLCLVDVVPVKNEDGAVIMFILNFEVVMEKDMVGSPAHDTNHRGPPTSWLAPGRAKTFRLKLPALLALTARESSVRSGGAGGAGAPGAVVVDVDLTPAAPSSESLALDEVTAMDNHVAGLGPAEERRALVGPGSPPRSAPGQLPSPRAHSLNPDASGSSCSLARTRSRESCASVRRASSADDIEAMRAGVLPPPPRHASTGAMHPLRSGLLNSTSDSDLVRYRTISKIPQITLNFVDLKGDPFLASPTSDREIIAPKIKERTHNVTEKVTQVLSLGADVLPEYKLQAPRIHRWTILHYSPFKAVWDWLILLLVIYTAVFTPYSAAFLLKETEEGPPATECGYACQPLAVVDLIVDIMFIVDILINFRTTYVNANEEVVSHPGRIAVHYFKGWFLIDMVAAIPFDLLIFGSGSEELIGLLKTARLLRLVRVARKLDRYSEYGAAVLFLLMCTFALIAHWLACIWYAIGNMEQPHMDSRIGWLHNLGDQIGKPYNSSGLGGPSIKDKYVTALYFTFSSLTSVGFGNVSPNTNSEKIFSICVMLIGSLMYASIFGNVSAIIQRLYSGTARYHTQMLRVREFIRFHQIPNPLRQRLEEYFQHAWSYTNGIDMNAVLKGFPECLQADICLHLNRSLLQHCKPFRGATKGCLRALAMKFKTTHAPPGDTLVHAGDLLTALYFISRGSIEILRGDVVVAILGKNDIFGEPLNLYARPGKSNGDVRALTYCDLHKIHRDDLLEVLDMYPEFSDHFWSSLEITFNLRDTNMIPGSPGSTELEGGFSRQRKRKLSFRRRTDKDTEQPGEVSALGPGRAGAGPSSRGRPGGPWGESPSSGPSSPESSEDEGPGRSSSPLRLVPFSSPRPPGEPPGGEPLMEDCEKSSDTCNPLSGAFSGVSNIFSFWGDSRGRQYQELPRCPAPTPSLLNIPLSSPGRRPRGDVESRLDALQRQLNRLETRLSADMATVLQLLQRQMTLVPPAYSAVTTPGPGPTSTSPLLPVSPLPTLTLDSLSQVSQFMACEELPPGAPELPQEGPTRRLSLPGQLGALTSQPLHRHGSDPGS
row,SMILES,"hERG current change (%, negative = inhibition) at 10uM [%]"
1,COc1cc(CNCCNCC(C)O)ccc1OCc1ccc(Cl)nc1 (centres unmarked),-8.7
2,Cc1ccc(NC(=O)CCNS(=O)(=O)c2ccc3c(c2)oc(=O)n3C)c(C)c1,-0.0525
3,O=C(CC1CCCCC1)NCCCN1CCOCC1,-0.948
4,Cc1ccc(S(=O)(=O)NCCC(=O)N2CCOCC2)cc1C,-5.97
5,C/C(=N\Nc1nc(C(C)(C)C)cs1)c1ccc(O)cc1,9.95
6,Cc1ccc(CNC(=O)Cc2noc3ccccc23)cc1,24.7
7,O=C(Nc1ccc2c(c1)C(=O)N(CC1CCCO1)C2=O)c1cccc(Br)c1 (centres unmarked),-33.2
8,CCN(CC)S(=O)(=O)c1ccc(C(=O)Oc2cc(C)[nH]c(=O)c2[N+](=O)[O-])cc1,12.9
9,COc1ccc(/C=C2\SC(=S)N(CCCC(=O)N3CCOCC3)C2=O)cc1OC,-0.193
10,Cc1ccc2cc(/C=C(\C#N)C(N)=O)c(N3CCCCC3)nc2c1,8.3
11,O=C(Nc1ccc(N2CCN(C(=O)c3ccco3)CC2)cc1)c1ccc(Br)cc1,11.4
12,COC(=O)c1cccc(S(=O)(=O)N2CCC(C)CC2)c1,-4.23
13,COc1cccc(-c2nc3ccccc3s2)c1O,7.97
14,CCOC(=O)Cc1cc(=O)n2[nH]c(-c3ccc(Cl)cc3)cc2n1,-20.4
15,CCN(CC)c1ccc(/C=N/NS(=O)(=O)c2ccc(CNC(C)=O)cc2)cc1,13.2
16,CCOc1ccc(NC(=O)CCSc2nnc(C)s2)cc1,-5.41
17,O=C(COC(=O)c1ccc(S(=O)(=O)NCc2ccco2)cc1)Nc1ncc(Cl)cc1Cl,-2.54
18,CCn1c(-c2ccco2)nc2ccccc21,-10.6
19,CCCc1cc(=O)[nH]c(SCC(=O)N2CCN(S(=O)(=O)c3ccccc3)CC2)n1,13.8
20,O=C(CSc1nc2ccccc2c(=O)[nH]1)Nc1ccc(S(=O)(=O)N2CCCC2)cc1,3.61
21,CCCNC(=O)Cn1c2ccccc2c2nc(=O)cc(C)n21,8.15
22,O=C(Nc1ccc(N2CCCC2)c(Cl)c1)c1cccc(-c2cc3ccccc3oc2=O)c1,7.73

row,SMILES,"hERG current change (%, negative = inhibition) at 10uM [%]"
1,Fc1cccc(CSc2nnc3c(n2)[nH]c2ccccc23)c1,13.8
2,COCCn1nnnc1C(c1ccc(O)c(OC)c1)N1CCc2ccccc2C1.Cl (centres unmarked),3.51
3,COC(=O)CNC(=O)C1CCN(C(=O)OCc2ccccc2)CC1,16.2
4,O=C(COC(=O)[C@@H]1CC(O)CN1S(=O)(=O)c1ccccc1[N+](=O)[O-])c1ccccc1 (some centres unmarked),-2.75
5,O=C(CC1C(=O)NCCN1CC1CCCCC1)NCc1ccc(Cl)cc1 (centres unmarked),-20.3
6,O=C(NCc1ccc(F)cc1)c1cc2ccccn2n1,-14.1
7,COc1cc2c(OC)cccc2cc1C(=O)O,1.76
8,COc1ccc(OC)c2c(N3CC(C)OC(C)C3)cc(C(F)(F)F)nc12 (centres unmarked),-10.3
9,O=C(Nc1nccs1)c1cncc(Br)c1,-4.53
10,Cc1nn(CCCC(=O)NC(C)c2ccccc2)c(=O)c2nn(-c3ccccc3)c(C)c12 (centres unmarked),-33.9
11,COc1cccc(Nc2nc(-c3sc(NC(=O)c4ccco4)nc3C)cs2)c1,19.5
12,Cc1ccc(C(=O)N/C(=C\c2sccc2C)C(=O)NCCCN2CCOCC2)cc1,-17.7
13,C=CCn1c(C)cc(C)c(C#N)c1=O,9.6
14,O=C(O)C1C2CCC(O2)C1C(=O)Nc1ccc(Cl)cc1 (centres unmarked),20.7
15,O=C(CC(c1ccc(F)cc1)c1ccco1)Nc1nccs1 (centres unmarked),0.85
16,CCOC(=O)Cn1nc(C)c(NC(=O)COc2ccc(OC)cc2)c1C,0.252
17,c1ccc2c(c1)OCc1cn[nH]c1-2,1.49
18,Cc1ccc(N(C(C)C(=O)Nc2c(C)n(C)n(-c3ccccc3)c2=O)S(C)(=O)=O)cc1C (centres unmarked),11.5
19,CC(=O)c1cccc(CN2CCN(CC=C(C)C)C(CCO)C2)c1 (centres unmarked),-8.1
20,O=[N+]([O-])c1ccc(NCCCNS(=O)(=O)c2ccccc2)cc1,-64.7
21,COc1ccc(C2CC(c3ccc(F)cc3)=NN2c2ccccc2)cc1OC (centres unmarked),1.29
22,CC1CCCCN1CCNC(=O)c1cc2c(=O)n(C)c3ccccc3c2n1C (centres unmarked),-2.27

row,SMILES,"hERG current change (%, negative = inhibition) at 10uM [%]"
1,CCCN(C(=O)CSCc1ccc(Cl)cc1)c1c(N)n(Cc2ccccc2)c(=O)[nH]c1=O,11.4
2,O=C(COc1ccc(F)cc1Br)N1CCN(c2ncccn2)CC1,-20.8
3,O=C(NCCOc1cccc2cccnc12)c1cccs1,-12.8
4,CCOc1cc(/C=N/NC(=O)CN(CCc2ccccc2)S(=O)(=O)c2ccc(NC(C)=O)cc2)ccc1O,2.38
5,CSc1nc(-c2ccccc2)nn1C(=O)c1ccc(C)cc1,3.97
6,COc1ccc(-c2cc(C(=O)N/N=C(\C)c3cccnc3)c3cc(C)ccc3n2)cc1OC,19.9
7,CCN(Cc1ccc(NC(C)=O)cc1)CC1CCCN(CCc2cccc(OC)c2)C1 (centres unmarked),-30.3
8,Cc1nnc(CN(C)Cc2cn[nH]c2-c2ccc(-c3ccccc3)cc2)o1,-15.1
9,CC1=C(C(=O)N2CCCCC2)C(c2cccs2)C2=C(CCCC2=O)N1 (centres unmarked),18.5
10,COc1cccc(C(=O)C2CCCN(C(=O)CCC3=NNC(=O)CC3)C2)c1 (centres unmarked),-15.2
11,C=CCSC1=N/C(=C\c2ccc(C(=O)O)cc2)C(=O)S1,14.9
12,O=S(=O)(c1cnc[nH]1)N1CCc2ccccc21,16.5
13,CCOC(=O)c1c(NC(=O)COC(=O)/C=C/c2ccco2)sc2c1CC(C)(C)NC2(C)C,-34.4
14,CCN1C[C@]2(COC(=O)c3ccccc3N)CC[C@H](OC)C34[C@@H]5C[C@H]6[C@H](OC)[C@@H]5[C@](O)(C[C@@H]6OC)[C@@](O)([C@H]13)[C@@H](OC)[C@@H]42,10.3
15,COc1ccc(NC(=O)CN(Cc2ccccc2)S(C)(=O)=O)cc1,-1.09
16,CCCN1C(=O)/C(=C/c2ccc(C)o2)NC1=S,9.75
17,CC(OC(=O)c1cc(S(=O)(=O)N2CCOCC2)ccc1F)C(=O)NC1CCCC1 (centres unmarked),-0.142
18,Cc1ccc(NC(=O)Nc2cccn(Cc3c(F)cccc3Cl)c2=O)cc1,20.1
19,Cc1ccccc1NC(=S)N1CCN(c2ccccc2Cl)CC1,8.88
20,COc1ccc(CC(=O)N/N=C/c2ccc(C)s2)cc1,11
21,O=C(NCc1ccccc1CN1CCCC1)c1ccc(OCc2cscn2)cc1,-30
22,CC(=O)N1CCN(c2ncnc3ccccc23)CC1,5.33

row,SMILES,"hERG current change (%, negative = inhibition) at 10uM [%]"
1,C=CCOc1c(Br)cc(/C=C2/NC(=S)N(C(C)=O)C2=O)cc1OC,16.5
2,Cn1c(O)c(N=NC(=O)CNC(=O)c2cccnc2)c2ccccc21,15.1
3,Cc1cc(OCC(=O)N2CCC(C(=O)O)(c3ccccc3)CC2)c2c(C)cc(=O)oc2c1,11.6
4,O=C(N/N=C/c1ccc(OC(=O)c2ccc(Br)cc2)cc1)c1ccncc1,-4.01
5,Cc1c(C(c2ccccc2Cl)c2c(O)c3ccccc3oc2=O)c(=O)n(-c2ccccc2)n1C (centres unmarked),17.9
6,O=c1cc(CN2CCN(Cc3ccccc3)CC2)c2cc3c(cc2o1)CCC3,-51
7,CN(Cc1ccco1)C(=O)c1c[nH]c2ccc(S(=O)(=O)Nc3ccc4c(c3)OCCO4)cc2c1=O,-21.4
8,O=S(=O)(Cc1ncc(C(F)(F)F)cc1Cl)c1ccccc1,9.45
9,Nn1c(SCc2ccccc2)nnc1-c1ccco1,15.7
10,COc1ccc(C(=O)[C@@H]2CC[C@](C)(C(=O)O)C2(C)C)cc1,10.1
11,Cc1cc(C)c(C2C(C#N)=C(N)Oc3n[nH]c(C)c32)cc1CN1CCOCC1 (centres unmarked),-17.6
12,COc1ccc(S(=O)(=O)N2CCC(NC(=O)N3CCOCC3)CC2)cc1,0.446
13,Cn1c(Cc2ccccc2)nnc1SCc1ccc(C(=O)O)cc1,1.12
14,O=C1CCCC2=C1C(c1ccncc1)c1c(nc(SCc3ccccc3)[nH]c1=O)N2 (centres unmarked),17.7
15,CN(Cc1ccccc1)C(=O)CN1C(=O)c2ccccc2C1=O,3.63
16,CC(=O)N(C(C)=O)N1C(=O)/C(=C/c2ccc(Cl)cc2)SC1=S,-2.01
17,COc1ccc2[nH]c3c(N4CCN(Cc5ccc6c(c5)OCO6)CC4)ncnc3c2c1,-18.8
18,CCN(C(=S)Nc1ccccc1F)C1CCCCC1,-0.0217
19,CC1(C)CC(=O)C2=C(C1)N(Cc1ccco1)C(=O)C2(NC(=O)c1ccc(Cl)cc1Cl)C(F)(F)F (centres unmarked),-4.46
20,Cc1cc(C)c(NC(=O)COc2cccnc2[N+](=O)[O-])c(C)c1,7.86
